In all, about 16,000 sequences were measured (“Z-score”: median about -0.37, highest 2% from about 3.2 on). Some of the results follow.
System: RBM10 RRM1-ZnF (GST-tagged construct)
Assay: RNAcompete 7-mer binding Z-score; higher = stronger binding preference
Procedure, shortened: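 Bound RNA was identified by microarray hybridisation after GST-tagged RBM10 constructs (20 pmol) had been mixed with 1.5 nmol of a designed pool of 241 399 RNAs up to 41 nt, transcribed from microarray-derived DNA templates. Binding ran for 30 min at 4°C in 1 ml Hepes pH 7.8 buffer with KCl, NaCl, glycerol, DTT, BSA and glutathione Sepharose beads, with four 2-min washes at 4°C afterwards. For every heptamer motif, a one-sided Z-score for enrichment was computed across the probes that contained it.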

Sequence	RNAcompete 7-mer binding Z-score
AGAAGCU	-0.48
UACUCGC	-0.581
ACCUCAA	-0.737
GUGAAGG	3.74
CCCAGCU	-0.457
AUGUACA	-0.0577
UAUCUUU	-0.815
UCCACCU	-0.789
UAAGCGA	-0.123
UAGGGCU	1.42
AGUAAAU	-0.145
CGUUUCA	-0.776
AAAUUGA	0.03
GUUGACC	-0.0479
GCAUUUU	-0.938
CAAUUCA	-0.772
ACACCAG	-0.548
CCUCCCC	-0.197
AUGGCCU	-0.428
CCGGCUA	-0.633
UAGAAGA	0.439
CCAGUGC	-0.519
CAGCGCA	-0.366

Sequence	RNAcompete 7-mer binding Z-score
UAGGGGU	3.9
CCGCAGA	-0.503
AGCCUGG	-0.262
GUACACA	-0.269
GGCAGCC	-0.272
GGAAUAC	0.878
AUGAUAU	-0.0772
AAGCUGA	-0.0837
AAUAACG	-0.256
AGAUGUC	-0.444
CGAGCAC	-0.116
UCUGCUG	-0.617
UGUUUCA	-0.727
CCUUCCC	-0.548
ACCGUUA	-0.795
UCCCAGA	-0.678
CCUAGGA	0.199
CACUCGC	-0.604
AGGGGGG	2.76
CCGCACA	-0.662
ACAAGAA	-0.145
UUCCCUC	-0.62
GAAAUGC	0.0528

Sequence	RNAcompete 7-mer binding Z-score
GAUUAGC	0.0593
AGCGAAU	0.166
GGGCAAU	1.35
UUACGGA	0.186
AGCUUAC	-0.639
CAACAUG	-0.204
CAUUAGG	0.267
UAUGGUC	0.335
GUACCAG	-0.035
AGCUCGG	0.131
AUGUCUA	-0.698
UAGCAAC	-0.542
GUCUCCG	-0.451
AUUAGUC	-0.344
AGCGCUA	-0.431
UGUACCU	-0.759
GCAGCGU	0.254
GGUGUGA	2.52
CCGCCAG	-0.344
CUAACCA	-0.698
GCCGUGA	-0.285
UACUAGG	0.612
CAACCGA	-0.597

Sequence	RNAcompete 7-mer binding Z-score
GUUUGAG	0.391
CGUGGAG	1.97
ACCCGAA	-0.672
GAUCGGC	-0.0869
UCCCCUC	-0.428
CGGACCC	-0.136
UAGGUCC	-0.165
ACCGGUU	-0.305
CCAUGUU	-0.886
CACUUAG	-0.552
UCUACGG	-0.389
CCGACUG	-0.565
UUUAGCU	-0.746
CCCCUAG	-0.129
AUAAGUA	-0.194
UCUACCA	-0.779
AAUGUAA	0.0788
CAACACG	-0.457
UCUAAGA	-0.62
UGCGAGC	0.316
UAUCAAG	-0.363
AAUCUAC	-0.594
CCGGCCC	-0.535

Sequence	RNAcompete 7-mer binding Z-score
UACCAGG	0.0235
AAGACAU	-0.106
CAUUUGA	-0.776
AGUAUGG	2.48
GUCACGC	-0.227
GUGGCAU	0.813
GACGGUA	1.19
AAUAAGG	1.2
GCUCGUU	-0.526
GACAGGA	2.07
GAUCAAA	-0.451
CUUCAUG	-0.753
CGCUAGA	-0.451
AGUCCAA	-0.526
AUUCUGC	-0.86
GAUAUUU	-0.327
ACCGUGC	-0.561
GUCCAGC	-0.457
UCUAUUA	-0.685
GCGUAGA	0.335
GUUCAUA	-0.506
ACUCAAU	-0.763
UAGUGAG	0.917

Sequence	RNAcompete 7-mer binding Z-score
CGUGAUA	-0.00571
UUGCCCC	-0.457
UACAAUC	-0.659
ACGUACA	-0.272
GCACCCG	-0.379
UUCAAUG	-0.321
CGAAUUG	0.0235
AUGUUGC	-0.256
ACGAAGU	-0.0382
GAGGCCG	0.0723
UGGGGCA	3.56
AUGCUUU	-0.841
UAAACCA	-0.578
AUAAUUU	-0.756
GUCGUAC	-0.243
GCCGUGC	-0.402
AACAAUC	-0.506
GGGGGGA	3.3
AUUUGCA	-0.613
AGCUACC	-0.649
GGAUUAC	0.719
CUAUGGU	-0.116
CUCUUCC	-0.818

Sequence	RNAcompete 7-mer binding Z-score
CUCUGGU	-0.672
ACAAACU	-0.73
UUCAGAU	-0.633
ACAACAC	-0.327
GUCGUUC	-0.412
ACACCGG	0.215
GAUAUUA	-0.0317
GGUCGCU	-0.0674
ACUUCUU	-0.902
AACUCCG	-0.623
ACGCCCA	-0.72
GCUGCUA	-0.314
AGCUUGG	0.631
GAAACAC	-0.344
GGUGGGC	3.3
AGUACCA	-0.344
UGUGCCU	-0.295
GUUUAUA	-0.311
GCGCCUG	-0.37
GGCCGUG	0.586
CCAGGCA	-0.305
CCCAAGG	-0.022
CCGCGUU	-0.808

Sequence	RNAcompete 7-mer binding Z-score
UUUAUGG	0.303
UUUGUUG	-0.142
CGAAGCG	0.319
UCCUCCA	-0.607
UGGGCUU	1.32
GGGUAGC	2.73
GCACUGG	0.735
ACGCGUA	-0.197
ACAAGAC	-0.272
AAGAAUG	0.894
AGGAACC	-0.139
GACUUUG	-0.597
AAAUGUA	0.15
GAUCCAA	-0.652
AAUAGGG	3.28
GCAACAC	-0.532
UAGGAUA	2.03
CAUGCGG	0.222
GGCCAUG	-0.0609
CAUGUGA	0.17
UCAUGUU	-0.535
AACGAAA	-0.262
ACUCCAU	-0.724

— the supplement of paper PMC5499739
